Data taken from ChEMBL document CHEMBL5606458, “ASAP - ZIKV NS2B-NS3 protease fluorescence single point” (2024).
The whole screen tested about 2,700 compounds, of which about 160 (5.9%) showed an effect of 50% or more. Some of the results follow.

Target: Nonstructural protein 3 (Zika virus) (UniProt A0A024AXB9)
[1] = PRVABC59, Concentration 15.0 uM, Number of replicates 1.0
[2] = PRVABC59, Concentration 50.0 uM, Number of replicates 1.0
[3] = PRVABC59, Concentration 10.0 uM, Number of replicates 1.0

Sequence of UniProt A0A024AXB9 (A0A024AXB9 as listed by the source): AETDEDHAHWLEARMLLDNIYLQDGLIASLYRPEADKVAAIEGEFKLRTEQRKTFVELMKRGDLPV

`O=C(c1cc(Cl)ccc1NS(=O)(=O)c1ccc(Oc2ccccc2Cl)cc1)N1CCc2c([nH]c3ccccc23)C1` showed an inhibition [1] of 12.6%.
`CC(=O)Nc1ccc(C(=O)N[C@@H](Cc2cccc3c(CO)cc(C)nc23)C(=O)O)cn1` showed an inhibition (PRVABC59, Concentration 49.95 uM, Number of replicates 2.0, Standard deviation 2.2029654535956653 %) of -1.45% and an inhibition (PRVABC59, Concentration 99.9 uM, Number of replicates 2.0, Standard deviation 1.1943182808262969 %) of 4.57%.
`O=Cc1ccc(N2CCC(C(=O)N3CCN(CC(F)(F)F)CC3)CC2)cc1` was tested, and the inhibition [2] was 22.2%.
`O=Cc1ccc(N2CCC(C(=O)Nc3ccncc3I)CC2)cc1` was tested, and the inhibition [2] was 22.7%.
`O=C([C@@H]1CCCCN1C(=O)c1cc(Cl)ccc1NS(=O)(=O)c1ccc(Oc2ccccc2Cl)cc1)N1CCCC1` gave an inhibition [1] of 16.4%.
Work on `O=C(Nc1nc2cc(Cl)ccc2s1)c1cc(Cl)ccc1NS(=O)(=O)c1ccc(Oc2ccccc2Cl)cc1` yielded an inhibition [1] of 18.3%.
`CN(C)C(=O)N1CCN(C(=O)C2CCN(c3ccc(C=O)cc3)CC2)CC1` was tested, and the inhibition [2] was 19.2%.
For `Cc1nccn1-c1ccccc1CNC(=O)C1CCN(c2ccc(C=O)cc2)CC1`, the inhibition [3] was 24.9%.
Work on `CC(C)NC(=O)CN1CCN(C(=O)c2cc(Cl)ccc2NS(=O)(=O)c2ccc(Oc3ccccc3Cl)cc2)CC1` yielded an inhibition [1] of -2.42%.
Compound `CCn1ccnc(N[C@@H](Cc2c[nH]c3ccccc23)C(=O)N2CCCCC2)c1=O` has an inhibition (PRVABC59, Concentration 49.5 uM, Number of replicates 2.0, Standard deviation 3.438220710231146 %) of -0.678%, an inhibition (PRVABC59, Concentration 99.01 uM, Number of replicates 2.0, Standard deviation 6.741965325379917 %) of 3.36% and an inhibition (PRVABC59, Concentration 198.0 uM, Number of replicates 2.0, Standard deviation 3.9016173017072093 %) of 1.74%.
`Cc1cccc(CN2CCC(c3c[nH]c4cccnc34)CC2)c1` gave an inhibition (PRVABC59, Concentration 49.5 uM, Number of replicates 2.0, Standard deviation 2.42457357779759 %) of 2.44%, an inhibition (PRVABC59, Concentration 99.01 uM, Number of replicates 2.0, Standard deviation 3.1506488853312535 %) of 7.92% and an inhibition (PRVABC59, Concentration 198.0 uM, Number of replicates 2.0, Standard deviation 1.8696443151869018 %) of 12.8%.
Compound `Cc1cc(CO)c2cccc(Cc3ccccc3NC(=O)[C@@H](N)c3ccsc3)c2n1` has an inhibition (PRVABC59, Concentration 49.95 uM, Number of replicates 2.0, Standard deviation 2.2445410806003347 %) of 0.734% and an inhibition (PRVABC59, Concentration 99.9 uM, Number of replicates 2.0, Standard deviation 1.969699247677824 %) of 6.11%.
In the case of `N#Cc1cccnc1N1CCN(C(=O)C2CCN(c3ccc(C=O)cc3)CC2)CC1`, the inhibition [2] was -3.4%.
Compound `CCCCCC(=O)N[C@H](C(=O)NCc1cccc(CN)c1)C(C)C` has an inhibition (PRVABC59, Concentration 49.5 uM, Number of replicates 2.0, Standard deviation 1.6604110062016018 %) of -3.37%, an inhibition (PRVABC59, Concentration 99.01 uM, Number of replicates 2.0, Standard deviation 0.686994979426725 %) of -1.61% and an inhibition (PRVABC59, Concentration 198.0 uM, Number of replicates 2.0, Standard deviation 1.5234270050454344 %) of 1.78%.
With `COc1ccc(-c2cc(NC(=O)C3CCN(c4ccc(C=O)cc4)CC3)[nH]n2)cc1` the inhibition [2] was -8.36%.
For `O=C(c1nc2ccccc2[nH]1)N1CCCC[C@H]1c1nc2ccccc2[nH]1`, the inhibition (PRVABC59, Concentration 49.5 uM, Number of replicates 2.0, Standard deviation 6.1042129746591085 %) was -4.73%, the inhibition (PRVABC59, Concentration 99.01 uM, Number of replicates 2.0, Standard deviation 3.7363658728701186 %) was -3.45% and the inhibition (PRVABC59, Concentration 198.0 uM, Number of replicates 2.0, Standard deviation 3.8832690926764766 %) was -4.07%.
`COCC[C@@H](NC(=O)OCc1ccccc1)C(=O)Nc1cccc(CN)c1` was tested, and the inhibition (PRVABC59, Concentration 49.5 uM, Number of replicates 2.0, Standard deviation 1.3012513050396814 %) was -1.25%, the inhibition (PRVABC59, Concentration 99.01 uM, Number of replicates 2.0, Standard deviation 0.4150273719118387 %) was 0.031% and the inhibition (PRVABC59, Concentration 198.0 uM, Number of replicates 2.0, Standard deviation 0.38382224566943357 %) was 3.21%.
`Cc1cc(NC(=O)C2CCN(c3ccc(C=O)cc3)CC2)cnc1Br` showed an inhibition [2] of 14.9%.
`O=Cc1ccc(N2CCC(C(=O)NCc3ccc(SC(F)(F)F)cc3)CC2)cc1` showed an inhibition [3] of 2.67%.
`O=Cc1ccc(N2CCC(C(=O)N3CCN(c4cccnc4)CC3)CC2)cc1` gave an inhibition [2] of 20.5%.
`CN(Cc1cccc([N+](=O)[O-])c1)C(=O)c1cc(Cl)ccc1NS(=O)(=O)c1ccc(Oc2ccccc2Cl)cc1` was tested, and the inhibition [1] was 22.6%.
`O=C(NCC1(CO)CC1)[C@]1(c2ccc(F)cc2)CCCNC1` was tested, and the inhibition (PRVABC59, Concentration 49.5 uM, Number of replicates 2.0, Standard deviation 0.9681443832568309 %) was -0.032%, the inhibition (PRVABC59, Concentration 99.01 uM, Number of replicates 2.0, Standard deviation 1.2629623893806565 %) was -0.015% and the inhibition (PRVABC59, Concentration 198.0 uM, Number of replicates 2.0, Standard deviation 1.1811741328420227 %) was -0.495%.
With `CSCC[C@H](NC(=O)OC(C)(C)C)C(=O)N1CCC[C@H]1C(=O)N1CCNCC1` the inhibition (PRVABC59, Concentration 49.5 uM, Number of replicates 2.0, Standard deviation 3.1362795073873433 %) was -7.44%, the inhibition (PRVABC59, Concentration 99.01 uM, Number of replicates 2.0, Standard deviation 3.0029926277825516 %) was -6.05% and the inhibition (PRVABC59, Concentration 198.0 uM, Number of replicates 2.0, Standard deviation 2.5930346155893305 %) was -4.02%.
